Among all 320,000 compounds or so, about 200 (0.062%) were called active. Inconclusive means that the source gave no clear call. Such entries were picked first, then a sample of the others. The call rests on the fitted dose curve; in most records, active means well fitted activation curve with a large enough effect; inconclusive means small, poorly fitted or top-dose-only effect; inactive means no such curve, though single readings can be large or run the other way. No potency is given beside an inconclusive call; the fits are too rough.
Experiment: qHTS assay for re-activators of p53 using a Luc reporter; further: nearly all actives have a fitted effect of over 45% in size
Conditions: H1299 p53-A138V BP100-luciferase reporter, luminescence, 24 h; series mostly up to 92.2 µM
How it was run: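 H1299 (p53-null), stable ts p53-A138V + BP100-Luc; 1000 cells/well, Opti-MEM/10% FBS; cpd 4 pt, 1:5; 24 h, 37 deg C, 5% CO2; detection reagent 10 min RT; luminescence.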
Potency means the concentration at half of the fitted maximal effect; tags describe the fitted curve by direction and shape.

Row | SMILES | Potency
1 | CC(=O)C(/C=N/c1cc(-c2ccc(C)cc2)nn1-c1ccccc1)=C(\C)O | inconclusive [activator, full curve, poor fit]
2 | Cc1ccc(C(=O)OCc2ccc3c(c2)OCO3)cc1S(=O)(=O)N1CCCCC1 | inactive
3 | COc1ccc(-n2nc(C(=O)NCC(=O)N3CCN(c4ccccc4)CC3)c3ccccc3c2=O)cc1OC | inconclusive [activator, partial curve, poor fit]
4 | Cc1nn(-c2ccccc2)c(C)c1CCC(=O)O | inconclusive [activator, partial curve, poor fit]
5 | COc1ccccc1-n1cnc(N)c1C(=O)c1ccccc1 | inactive
6 | Cc1ccc(C(C#N)c2ccc(C(=O)c3ccc(F)cc3)cc2)cc1 (stereo unspecified) | inactive
7 | CCOc1ccc(N2C(=O)c3ccccc3C2O)cc1 (stereo unspecified) | inconclusive [activator, partial curve, poor fit]
8 | CCC(Sc1nc2ccsc2c(=O)n1Cc1ccc(C(=O)O)cc1)C(=O)Nc1ccc(C)c(Cl)c1 (stereo unspecified) | inactive
9 | CS(=O)(=O)N1CCC(C(=O)Nc2cccc(Br)c2)CC1 | inactive
10 | COc1ccc(NS(=O)(=O)c2ccc(OC)c(N(C)S(=O)(=O)c3ccc(Cl)cc3)c2)cc1 | inconclusive [activator, full curve, poor fit]
11 | COc1ccc(C(=O)N/N=C/c2sc3ccccc3c2O)cc1 | inconclusive [activator, partial curve, poor fit]
12 | N#CCC(=O)Nc1nc(-c2ccc3c(c2)OCCO3)cs1 | inactive
13 | COc1ccccc1NS(=O)(=O)c1cc(NC(=O)CCC(=O)c2cccs2)ccc1Cl | inactive
14 | CCCc1[nH]n(-c2ccc([N+](=O)[O-])cc2)c(=O)c1C=NCCc1c[nH]c2ccccc12 | inactive
15 | O=C1c2ccccc2C(=O)c2c1cccc2N1CCOCC1 | inconclusive [activator, partial curve, poor fit]
16 | CCc1ccc(C2c3[nH]c4ccccc4c3CCN2C(=O)c2cc(C)nn2C)cc1 (stereo unspecified) | inactive
17 | Fc1ccc(CNc2ccccn2)cc1 | inconclusive [activator, single point]
18 | CCOC(=S)SCC(=O)N1CCc2cc(OC)ccc2C1C1C(=O)CCCC1=O (stereo unspecified) | inconclusive [activator, single point]
19 | CCCCNC(=O)C(C)N(CCN(C)C)C(=O)CCCN1C(=O)NC(c2ccc(Cl)cc2)C(C(=O)OCc2ccccc2)=C1C (stereo unspecified) | inconclusive [activator, partial curve, poor fit]
20 | Clc1ccc(/C(Cc2nc3ccccc3[nH]2)=N\Nc2ccccc2)cc1 | inactive
21 | CN1CCN(C(=O)c2cc(COc3ccccc3)on2)[C@@H](c2ccccc2)C1 | inconclusive [activator, partial curve, poor fit]
22 | Clc1ccc(-c2nsc(N3CCOCC3)n2)c(Cl)c1 | inconclusive [activator, full curve, poor fit]
23 | O=C(NCc1ccco1)c1ccc(COc2ccccc2Cl)cc1 | inactive

Row | SMILES | Potency
24 | CC(=O)NC1C(=O)N(CCN2CCOCC2)c2ccc(F)cc21 (stereo unspecified) | inconclusive [activator, single point]
25 | CCNC(=S)NNC(=O)CSc1nc2ccccc2[nH]1 | inactive
26 | Cc1cccc(OCC(=O)Nc2cc(C)on2)c1 | inconclusive [activator, partial curve, poor fit]
27 | CCN(CC)CCSc1nc2ccccc2n1Cc1ccccc1 | inconclusive [activator, partial curve, poor fit]
28 | CNc1nc(N2CCc3ccccc32)ncc1F | inconclusive [activator, partial curve, poor fit]
29 | O=c1c(-c2ccc(Cl)cc2)coc2c(CN3CCOCC3)c(O)ccc12 | inactive
30 | Nc1cccc(CCc2nc3ccccc3[nH]2)c1 | inconclusive [activator, single point]
31 | CSc1nc2ccc(NC(=O)c3nn(C(C)C)c(=O)c4ccccc34)cc2s1 | inconclusive [activator, single point]
32 | Cc1cccc(S(=O)(=O)c2c(C)cc(C)[nH]c2=O)c1 | inconclusive [activator, partial curve, poor fit]
33 | COc1ccc(NS(=O)(=O)c2ccc(OCC(=O)N3CCOCC3)cc2)cc1Cl | inactive
34 | CCOC(=O)c1cnc(Nc2nc3ccccc3o2)nc1CSC(=S)N(CC)CC | inconclusive [activator, full curve, poor fit]
35 | COc1ccc(Nc2nc(N)nc(CN3CCOCC3)n2)cc1 | inactive
36 | CC(C)(C)N1C(=O)c2ccc(C(=O)Nc3ccc(-c4nc5ccccc5[nH]4)cc3)cc2C1=O | inconclusive [activator, single point]
37 | CCc1ccc(NC(=O)c2cnc3n(c2=O)CCS3)cc1 | inconclusive [activator, partial curve, poor fit]
38 | Oc1ccc(/C=N/NC(=S)Nc2cccnc2)c(O)c1 | inconclusive [activator, full curve, poor fit]
39 | CCc1cc(-c2n[nH]c(=S)n2-c2cccc(C)c2)cs1 | inactive
40 | C=CCn1c(=NC(=O)c2sc3ccccc3c2Cl)sc2cc(S(N)(=O)=O)ccc21 | inactive
41 | CCOC(=O)c1[nH]c(C)c(C(=O)Nc2ccccc2F)c1C | inconclusive [activator, partial curve, poor fit]
42 | COc1ccc(NC(=O)c2cc(-c3cc(C)ccc3O)n[nH]2)cc1Cl | inconclusive [activator, single point]
43 | c1ccc(-c2cnnc(N3CCOCC3)n2)cc1 | inconclusive [activator, single point]
44 | COc1ccc(CN2CCN(Cc3ccco3)CC2)cc1OC | inactive
45 | CC(=O)N(CCc1ccccc1)Cc1cc2cc(C)ccc2[nH]c1=O | inactive
46 | Cc1ccc(S(=O)(=O)N2CCN(C(=O)COC(=O)CSc3cc(C)ccc3C)CC2)c(C)c1 | inactive
